Results published in publication PMC9911399, “Two distinct binding modes provide the RNA-binding protein RbFox with extraordinary sequence specificity”.
Numbering of substitutions follows the chain as printed; changes in the protein carry UniProt numbers. Some of the results follow.

T1: RBFOX1 RRM (Homo sapiens, UniProt Q9NWB1 109-208)
T1 sequence: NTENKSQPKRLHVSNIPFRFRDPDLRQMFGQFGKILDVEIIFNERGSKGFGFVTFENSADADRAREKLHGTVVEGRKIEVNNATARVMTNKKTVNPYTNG

B1: AACGAAG (DNA:RNA)
RNA: GGGAGACCGGAAUUCAGAUUGUCCAACGAAGUUAAAUCCCGUCGUAGCCACCA
DNA 1: CAATCTGAATTCCGGTCTCCC
DNA 2: TGGTGGCTACGACGGGATT
B2: AUGUUAA (DNA:RNA)
RNA: B1 RNA with A26U, C27G, G28U, A29U, G31A
DNA 1: CAATCTGAATTCCGGTCTCCC
DNA 2: TGGTGGCTACGACGGGATT
B3: CGAGGAA (DNA:RNA)
RNA: B1 RNA with A25C, A26G, C27A, A29G, G31A
DNA 1: CAATCTGAATTCCGGTCTCCC
DNA 2: TGGTGGCTACGACGGGATT
B4: AGAGUGG (DNA:RNA)
RNA: B1 RNA with A26G, C27A, A29U, A30G
DNA 1: CAATCTGAATTCCGGTCTCCC
DNA 2: TGGTGGCTACGACGGGATT
B5: CCAUUCA (DNA:RNA)
RNA: GGGAGACCGGAAUUCAGAUUGUCCCCAUUCAUUAAAUCCCGUCGUAGCCACCA
DNA 1: CAATCTGAATTCCGGTCTCCC
DNA 2: TGGTGGCTACGACGGGATT
B6: UGGAGCU (DNA:RNA)
RNA: B5 RNA with C25U, C26G, A27G, U28A, U29G, A31U
DNA 1: CAATCTGAATTCCGGTCTCCC
DNA 2: TGGTGGCTACGACGGGATT
B7: AUCCACA (DNA:RNA)
RNA: B1 RNA with A26U, G28C, A30C, G31A
DNA 1: CAATCTGAATTCCGGTCTCCC
DNA 2: TGGTGGCTACGACGGGATT
B8: CCUGAUG (DNA:RNA)
RNA: B1 RNA with A25C, A26C, C27U, A30U
DNA 1: CAATCTGAATTCCGGTCTCCC
DNA 2: TGGTGGCTACGACGGGATT
B9: AUUGGUU (DNA:RNA)
RNA: B1 RNA with A26U, C27U, A29G, A30U, G31U
DNA 1: CAATCTGAATTCCGGTCTCCC
DNA 2: TGGTGGCTACGACGGGATT
B10: AGGCCCU (DNA:RNA)
RNA: B1 RNA with A26G, C27G, G28C, A29C, A30C, G31U
DNA 1: CAATCTGAATTCCGGTCTCCC
DNA 2: TGGTGGCTACGACGGGATT
B11: CAUUUCG (DNA:RNA)
RNA: B5 RNA with C26A, A27U, A31G
DNA 1: CAATCTGAATTCCGGTCTCCC
DNA 2: TGGTGGCTACGACGGGATT
B12: AUGUUCA (DNA:RNA)
RNA: B5 RNA with C25A, C26U, A27G
DNA 1: CAATCTGAATTCCGGTCTCCC
DNA 2: TGGTGGCTACGACGGGATT
B13: AGGGUAC (DNA:RNA)
RNA: B1 RNA with A26G, C27G, A29U, G31C
DNA 1: CAATCTGAATTCCGGTCTCCC
DNA 2: TGGTGGCTACGACGGGATT
B14: CUCGUGG (DNA:RNA)
RNA: B1 RNA with A25C, A26U, A29U, A30G
DNA 1: CAATCTGAATTCCGGTCTCCC
DNA 2: TGGTGGCTACGACGGGATT
B15: GUAUUGU (DNA:RNA)
RNA: B5 RNA with C25G, C26U, C30G, A31U
DNA 1: CAATCTGAATTCCGGTCTCCC
DNA 2: TGGTGGCTACGACGGGATT
B16: ACUACUU (DNA:RNA)
RNA: B1 RNA with A26C, C27U, G28A, A29C, A30U, G31U
DNA 1: CAATCTGAATTCCGGTCTCCC
DNA 2: TGGTGGCTACGACGGGATT
B17: CUUGCUG (DNA:RNA)
RNA: B1 RNA with A25C, A26U, C27U, A29C, A30U
DNA 1: CAATCTGAATTCCGGTCTCCC
DNA 2: TGGTGGCTACGACGGGATT
B18: GAAAUCC (DNA:RNA)
RNA: B5 RNA with C25G, C26A, U28A, A31C
DNA 1: CAATCTGAATTCCGGTCTCCC
DNA 2: TGGTGGCTACGACGGGATT
B19: UAGCGAU (DNA:RNA)
RNA: B1 RNA with A25U, C27G, G28C, A29G, G31U
DNA 1: CAATCTGAATTCCGGTCTCCC
DNA 2: TGGTGGCTACGACGGGATT
B20: UCGCUGG (DNA:RNA)
RNA: B5 RNA with C25U, A27G, U28C, C30G, A31G
DNA 1: CAATCTGAATTCCGGTCTCCC
DNA 2: TGGTGGCTACGACGGGATT
B21: CACAUUC (DNA:RNA)
RNA: B1 RNA with A25C, G28A, A29U, A30U, G31C
DNA 1: CAATCTGAATTCCGGTCTCCC
DNA 2: TGGTGGCTACGACGGGATT
B22: GAGGACA (DNA:RNA)
RNA: B1 RNA with A25G, C27G, A30C, G31A
DNA 1: CAATCTGAATTCCGGTCTCCC
DNA 2: TGGTGGCTACGACGGGATT
B23: UGUUUGU (DNA:RNA)
RNA: B5 RNA with C25U, C26G, A27U, C30G, A31U
DNA 1: CAATCTGAATTCCGGTCTCCC
DNA 2: TGGTGGCTACGACGGGATT
B24: GAGUGAG (DNA:RNA)
RNA: B1 RNA with A25G, C27G, G28U, A29G
DNA 1: CAATCTGAATTCCGGTCTCCC
DNA 2: TGGTGGCTACGACGGGATT
B25: CCAAGUG (DNA:RNA)
RNA: B5 RNA with U28A, U29G, C30U, A31G
DNA 1: CAATCTGAATTCCGGTCTCCC
DNA 2: TGGTGGCTACGACGGGATT
B26: GCAUGGG (DNA:RNA)
RNA: B5 RNA with C25G, U29G, C30G, A31G
DNA 1: CAATCTGAATTCCGGTCTCCC
DNA 2: TGGTGGCTACGACGGGATT
B27: UGUCUAC (DNA:RNA)
RNA: B1 RNA with A25U, A26G, C27U, G28C, A29U, G31C
DNA 1: CAATCTGAATTCCGGTCTCCC
DNA 2: TGGTGGCTACGACGGGATT
B28: ACCCAGU (DNA:RNA)
RNA: B1 RNA with A26C, G28C, A30G, G31U
DNA 1: CAATCTGAATTCCGGTCTCCC
DNA 2: TGGTGGCTACGACGGGATT
B29: UUUAGAU (DNA:RNA)
RNA: B1 RNA with A25U, A26U, C27U, G28A, A29G, G31U
DNA 1: CAATCTGAATTCCGGTCTCCC
DNA 2: TGGTGGCTACGACGGGATT
B30: GAGCAGG (DNA:RNA)
RNA: B1 RNA with A25G, C27G, G28C, A30G
DNA 1: CAATCTGAATTCCGGTCTCCC
DNA 2: TGGTGGCTACGACGGGATT
B31: UACAUAA (DNA:RNA)
RNA: B1 RNA with A25U, G28A, A29U, G31A
DNA 1: CAATCTGAATTCCGGTCTCCC
DNA 2: TGGTGGCTACGACGGGATT

The binders below were run against T1, RBFOX1 RRM (assay: EMSA; HiTS-Eq, 1 nM pool, 10 min; buffer printed only for the single-RNA assays: 10 mM Tris pH 7.5, 150 mM NaCl, 3.4 mM EDTA, 0.001% NP-40, 30 C). Conditions: tags: His6 N-terminal (pET28a); label: 5' 32P.
Outline: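 Purified wild-type or mutant RbFox RRM at increasing concentrations was equilibrated with 1 nM of 5′-radiolabelled RNA carrying 7 randomized nucleotides for 10 min in 50 µL. Unbound RNA was separated by 8% native PAGE and sequenced. Relative association constants came from read-count changes of each RNA species compared with the control reaction, normalised to the cognate motif.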
In the case of B1, the binding signal is reported as 0.00636 KA relative to UGCAUGU. In the case of B2, the binding signal is reported as 0.00381 KA relative to UGCAUGU. In the case of B3, the binding signal is reported as 0.011 KA relative to UGCAUGU. In the case of B4, the binding signal is reported as 0.0131 KA relative to UGCAUGU. B5 was tested, and the binding signal was 0.00352 KA relative to UGCAUGU. In the case of B6, the binding signal is reported as 0.0239 KA relative to UGCAUGU. For B7, the binding signal was 0.000327 KA relative to UGCAUGU. With B8 the binding signal was 0.0205 KA relative to UGCAUGU. B9 was tested, and the binding signal was 0.0109 KA relative to UGCAUGU. B10 was tested, and the binding signal was 0.00512 KA relative to UGCAUGU. In the case of B11, the binding signal is reported as 0.00769 KA relative to UGCAUGU. For B12, the binding signal was 0.00747 KA relative to UGCAUGU. In the case of B13, the binding signal is reported as 0.0154 KA relative to UGCAUGU. B14 was tested, and the binding signal was 0.00654 KA relative to UGCAUGU. In the case of B15, the binding signal is reported as 0.0125 KA relative to UGCAUGU. With B16 the binding signal was 0.00357 KA relative to UGCAUGU. For B17, the binding signal was 0.0189 KA relative to UGCAUGU. B18 was tested, and the binding signal was 0.00369 KA relative to UGCAUGU. In the case of B19, the binding signal is reported as 0.0103 KA relative to UGCAUGU. With B20 the binding signal was 0.0219 KA relative to UGCAUGU. B21 was tested, and the binding signal was 0.00143 KA relative to UGCAUGU. B22 was tested, and the binding signal was 0.00218 KA relative to UGCAUGU. With B23 the binding signal was 0.0434 KA relative to UGCAUGU. For B24, the binding signal was 0.0102 KA relative to UGCAUGU. With B25 the binding signal was 0.00535 KA relative to UGCAUGU. B26 was tested, and the binding signal was 0.0735 KA relative to UGCAUGU. With B27 the binding signal was 0.0108 KA relative to UGCAUGU. In the case of B28, the binding signal is reported as 0.00233 KA relative to UGCAUGU. B29 was tested, and the binding signal was 0.0157 KA relative to UGCAUGU. In the case of B30, the binding signal is reported as 0.0152 KA relative to UGCAUGU. With B31 the binding signal was 0.00163 KA relative to UGCAUGU.
